Our source for the survival values is PubChem BioAssay AID463173 (ICCB-Longwood Screening Facility, Harvard Medical School, 2010).

Each structure is given as a SMILES string. The whole screen tested about 52,000 compounds, of which about 4,300 (8.3%) were called active. No stated cut-off is given here; in the data, active means survival mostly below about 52% (no sharp cut-off); inactive means mostly above about 56%. This is one part of the list.

In the experiment the test system is DeltatarO mutant. Description: S. aureus survival, RN4220 and DeltatarO strains – OD600, teichoic acid synthesis inhibitors, primary screen (AID 463173). Conditions: S. aureus RN4220 wild type/DeltatarO growth, OD600, 18 h, active compounds read low, screened at 18.75 µg/mL (by protocol).
As for `CCCCCOc1ccc(NC(=O)Cc2csc(C)n2)cc1`, the survival is inactive: 44%. The figure for `Cc1ccc(C(=O)Nc2ccccc2C(=O)O)cc1S(=O)(=O)N1CCCCCC1` is inactive: 92%; for `CC(=O)c1ccc(NC(=O)c2cc(-c3ccc4c(c3)OCO4)on2)cc1` it is inactive: 67%. Under `CCc1ccc(-c2nc(CN3CCCC(C(=O)NCc4ccc(C)cc4)C3)c(C)o2)cc1` (centres undefined) stands inactive: 73%.

In the case of `COC(=O)C(Cc1c[nH]c2ccccc12)NC(C)=O` (centres undefined), the survival was inactive: 92%. `CCn1cc2nc(SCC(=O)Nc3ccccc3F)n(Cc3ccc(C)cc3)c(=O)c2n1`: the survival is inactive: 99%.

`COc1ccc(-c2cc3nc(C)c(CCC(=O)Nc4cccc(C(F)(F)F)c4)c(C)n3n2)c(OC)c1`: the survival was inactive: 92%. The figure for `Cc1ccc(CNC(=O)Nc2cn(CC(C)C)c(=O)c3ccccc23)cc1` is inactive: 73%; for `Cc1ccnc(NC(=O)c2c(C)oc3ncn(CC(C)C)c(=O)c23)c1` it is inactive: 92%; for `Cc1ccc2[nH]c(C(=O)Nc3ccccc3)cc2c1` it is inactive: 60%.

As for `CCOc1cc(C2NC(=O)c3c(sc4c3CCN(C)C4)N2)ccc1OC(=O)c1ccccc1Cl` (centres undefined), the survival was inactive: 146%. As to `COc1ccc(-c2[nH]c(-c3ccccc3)nc2SCC(=O)Nc2ccc3c(c2)OCCO3)cc1`, the survival was inactive: 54%. As for `CN1CCN(CCCNC(=O)Cn2c(-c3cccs3)cc3cc(Cl)ccc32)CC1`, the survival is inactive: 99%.

For the molecule `Cc1ccc(CN2COc3cc(C)c4c(oc(=O)c5ccccc54)c3C2)cc1`, the survival was inactive: 65%. Under `CCOc1ccc(NC(=O)c2cnn(-c3ccc(C)c(Cl)c3)c2C2CCNCC2)cc1` stands inactive: 70%; under `COc1cc(OC)c(NC(=O)C(NS(=O)(=O)c2cccc3nsnc23)c2ccccc2)cc1Cl` (centres undefined), inactive: 60%; under `COCCNc1oc(-c2ccc(COc3ccc(OC)cc3)o2)nc1C#N`, inactive: 79%. For `Cc1ccc(NC(=O)CSc2nc3ccccc3c3nc(CCc4c(C)n[nH]c4C)nn23)c(C)c1`, the survival was inactive: 99%. The figure for `Cc1ccc(-c2nn(-c3ccc(F)cc3F)c3c2cnc2c(F)cccc23)cc1` is inactive: 73%; for `CCOC(=O)c1cnc2c(ccc3ccccc32)c1Nc1ccccc1OC` it is active: 28%; for `Cc1ccc(S(=O)(=O)CCC(=O)Nc2ccc(Br)cc2C)cc1` it is inactive: 85%. As for `CC1(C)CC(NC(=O)CCc2ccccc2)CC(C)(C)N1`, the survival is inactive: 102%. The figure for `O=C(NC1CC(=O)N(c2ccc3c(c2)OCCO3)C1)c1c(F)cccc1Cl` (centres undefined) is inactive: 98%. As for `Nc1cccc(C(=O)NC23CC4CC(CC(C4)C2)C3)c1`, the survival was inactive: 95%. On to `COc1ccc(-c2noc(CSc3nnc(Cc4ccccc4)n3-c3ccccc3)n2)cc1OC`, for which the survival is inactive: 98%. For `CCOC(=O)c1cc(-c2ccccc2)n(CC(=O)NC2CCC(C)CC2)c1C` (centres undefined), the survival was inactive: 92%.

As to `CCOC(=O)c1cnc2ccccc2c1NCC(C)O` (centres undefined), the survival was inactive: 89%.

Regarding `CCCCOc1ccc(CNC(=O)c2ccc(-c3nc(CN4CCc5ccccc54)c(C)o3)cc2)cc1`, the survival was inactive: 101%. The figure for `COc1ccc2[nH]c(=O)c(CN(Cc3ccco3)C(c3nnnn3Cc3ccccc3)C(C)C)cc2c1` (centres undefined) is inactive: 64%; for `COc1cccc(NC(=O)c2sc3nc4n(c(=O)c3c2C)CCC4)c1` it is inactive: 92%. The figure for `CCc1ccc2oc(-c3cccc(NC(=O)c4cc5ccccc5o4)c3)nc2c1` is active: 14%; for `Cc1ccccc1C(=O)Nc1nc2nc(C)c(C)c(=O)n2[nH]1` it is inactive: 92%; for `CCCc1nn2c(=O)cc(COC(=O)c3ccc(NC(=O)CCc4ccccc4)cc3)nc2s1` it is inactive: 69%. The figure for `Cc1nc2c(C(=O)O)cnn2c(C)c1Cc1ccccc1` is inactive: 81%. Regarding `Cc1ccc(C(=O)CSc2ncc3c(n2)-c2ccccc2N(Cc2ccc(Cl)cc2)S3(=O)=O)cc1`, the survival is inactive: 115%. The figure for `Cc1ccc2nc(N3CCN(c4cccc(Cl)c4)CC3)c3nnnn3c2c1` is inactive: 88%; for `Cn1c(SCC(=O)N2CCCc3ccccc32)ncc(C(=O)Nc2ccc(Cl)cc2)c1=O` it is inactive: 94%. Take `COc1cccc(CN(Cc2ccco2)c2cnc(S(C)(=O)=O)nc2C(=O)Nc2cccc(Cl)c2C)c1`: the survival is active: 47%. On to `CCOc1ccccc1-c1nc(=S)[nH][nH]1`, for which the survival is inactive: 79%. Under `Cc1cc2cc(CN(Cc3ccco3)C(c3nnnn3C3CCCC3)C(C)C)c(=O)[nH]c2cc1C` (centres undefined) stands inactive: 107%; under `CCc1nc2nc(C)cc(Nc3ccc(OC)cc3)n2n1`, inactive: 68%. The figure for `CCn1nnnc1SCC(=O)NC1CCCC1` is inactive: 65%.

For `COc1ccc(S(=O)(=O)N2CCCC(C(=O)N(Cc3cccs3)C3CC3)C2)cc1Cl` (centres undefined), the survival was inactive: 79%. As for `O=S(=O)(NCCSc1nnnn1-c1ccccc1)c1ccc(F)cc1`, the survival is inactive: 76%. For the molecule `Cc1ccc(-c2onc(C)c2C)cc1S(=O)(=O)NCc1ccco1`, the survival is inactive: 87%. In the case of `COc1cccc(OCCCCn2c(-c3ccc(Cl)cc3)nc3ccccc3c2=O)c1`, the survival is inactive: 62%. Take `O=C(c1cccc([N+](=O)[O-])c1)N1c2ncnn2C2(CCCCC2)[C@@H]2CCCC[C@@H]21`: the survival was inactive: 85%. Under `CC(=O)Nc1ccc(S(=O)(=O)NC2(C(F)(F)F)NC(=O)N(c3ccc(C)cc3)C2=O)cc1` (centres undefined) stands inactive: 83%. The figure for `CCOc1cc(C(=O)Nc2cccc(-c3nc4ccccc4o3)c2)cc(OCC)c1OCC` is inactive: 51%.

For the molecule `Cc1ccc(S(=O)(=O)c2cnc(SCC(=O)Nc3ccc4c(c3)OCCO4)[nH]c2=O)cc1`, the survival is inactive: 92%. Under `CN(C1CCCCC1)S(=O)(=O)c1ccc2c(c1)c(=O)c(C(=O)NCCc1ccc(Cl)cc1)cn2C` stands inactive: 69%; under `Cc1ccc(-c2nnc(Nc3cccc(Cl)c3)c3ccccc23)cc1S(=O)(=O)NCC1CCCO1` (centres undefined), inactive: 110%.

For `CCS(=O)(=O)N1CCC(C(=O)NCCC(C)C)CC1`, the survival is inactive: 87%. As for `CSCCC(NS(=O)(=O)c1ccc2c(c1)oc(=O)n2C)C(=O)NCCc1ccc(C)cc1` (centres undefined), the survival is inactive: 78%. For the molecule `Cc1cccc(CN2C(=O)c3ccccc3Sc3ccc(C(=O)N4CCCC4)cc32)c1`, the survival is inactive: 83%. Consider `O=C(Nc1cc(Cl)cc(Cl)c1)c1ccc(F)c(S(=O)(=O)NC2CCCC2)c1`, for which the survival is inactive: 95%. The figure for `O=C(CN1CCCCCCC1)Nc1ccc2c(c1)OCO2` is inactive: 87%; for `COC(=O)c1c(-c2cccs2)csc1NC(=O)c1ccc(Cl)cc1` it is inactive: 69%. As to `COCCN1C(=O)c2[nH]nc(-c3ccccc3O)c2C1c1ccc(OCc2ccccc2)c(OC)c1` (centres undefined), the survival is active: 13%. For the molecule `COc1ccc2c(c1)c1c(c(=O)n(-c3ccccc3C)c(=O)n1CC(=O)NCc1ccc(C)cc1)n2C`, the survival is inactive: 75%. As for `Cc1cccc(OCc2ccc(-c3nc(C#N)c(NCCN(C)C)o3)o2)c1`, the survival was inactive: 104%. Under `Cc1ccc(S(=O)(=O)c2cnc(SCC(=O)Nc3cc(C)cc(C)c3)nc2N)cc1` stands inactive: 102%. As to `O=C(NCCNCc1ccccc1)c1ccco1`, the survival was inactive: 104%. The figure for `CCCCc1ccc(-n2nc3cc(C)c(NC(=O)Cc4ccccc4)cc3n2)cc1` is inactive: 140%; for `COC(=O)c1ccccc1NC(=O)Cn1cc(S(=O)(=O)Cc2ccccc2F)c2ccccc21` it is inactive: 94%. The figure for `CCOC(=O)c1c(C)oc2nc(C)nc(NCc3ccccc3Cl)c12` is inactive: 92%; for `CCN(CC)c1ccc(NC(=O)CSc2nnc(C)c(=O)[nH]2)cc1` it is inactive: 85%. Consider `CCCN(CCC)C(=O)CSc1nnc2cc(C)c3cc(C)cc(C)c3n12`, for which the survival is inactive: 80%.

For `COc1ccccc1Nc1nn2c(=O)c3ccc(C(=O)NCc4cccs4)cc3nc2s1`, the survival was inactive: 75%. Under `COc1ccc(-c2cn3c(n2)sc2cc(C(=O)NCc4ccccc4OC)ccc23)cc1` stands inactive: 63%; under `COC(=O)c1cc(S(=O)(=O)NCC2CCN(Cc3cc(C)ccc3C)CC2)c[nH]1`, inactive: 81%. In the case of `COc1ccc(N2CCN(C(=O)c3ccc(C)c(NC(=O)c4nsc5ccccc45)c3)CC2)cc1`, the survival was inactive: 72%. The figure for `CCOC(=O)c1c(NC(=O)/C=C/c2ccccc2)sc2c1CCCC2` is inactive: 75%; for `COc1cccc(Cn2c(CNC(=O)C(C)C)nc3cccnc32)c1` it is inactive: 96%. `COCCNC(=O)C(=O)NCC(c1ccc2c(c1)OCO2)N1CCOCC1` (centres undefined): the survival is active: 0%. Consider `Cc1ccc(C(=O)Nc2ccc(-c3nc4ccccc4s3)c(O)c2)c(C)c1`, for which the survival was inactive: 84%. For the molecule `O=S(=O)(c1ccc2ccccc2c1)n1nc(-c2ccco2)nc1NCc1ccc(F)cc1`, the survival is inactive: 106%. Under `Cc1cc(NC(=O)CCCn2c(C)c3cnn(-c4ccccc4)c(=O)c3c2C)ccc1Br` stands inactive: 71%. Consider `Cc1cc(C)cc(C(=O)N(Cc2nc(-c3ccc(Cl)cc3)no2)C(C)C)c1`, for which the survival was active: 14%. As to `CCOc1ccccc1NC(=O)CN1C(=O)CC(c2ccco2)Sc2ccccc21` (centres undefined), the survival was inactive: 83%. The figure for `Cc1nc(-n2nc(C)c(Cc3ccccc3Cl)c2C)sc1C(=O)N1CCCCC1C` (centres undefined) is inactive: 74%; for `Cc1ccc(NC(=O)c2ncn(-c3ccccc3)n2)cc1Cl` it is inactive: 63%; for `COc1ccc(NC(=O)c2oc3ccccc3c2NC(=O)c2cc(=O)c3c(C)cc(C)cc3o2)cc1` it is inactive: 69%. Under `Cc1ccccc1C(C(=O)Nc1ccc(F)cc1)N(Cc1ccco1)C(=O)Cn1nnc2ccccc21` (centres undefined) stands inactive: 107%; under `COc1ccc(-c2nc(C(=O)Nc3cccc(C(C)=O)c3)nn2-c2ccc(Cl)cc2)cc1`, inactive: 99%; under `Cc1ccc(NC(=O)CS(=O)(=O)c2nc(-c3ccc(C)cc3)cn2-c2ccc(C)cc2)cc1`, inactive: 73%. The figure for `CCCCN(C)CCNC(=O)c1cc(=O)[nH]c2ccc(S(=O)(=O)N3CCCCCC3)cc12` is inactive: 75%; for `Cc1ccc(CNC(=O)c2cnc(N(C)C)nc2)cc1` it is inactive: 104%.

For the molecule `C#CC(C)(CC)NC(=O)Cn1nnc(-c2ccc(OCc3ccccc3F)cc2)n1` (centres undefined), the survival was inactive: 73%.
